{
  "source": "patent US20260199505A1",
  "about": "“COMBINATION THERAPY COMPRISING BISPECIFIC ANTIBODIES COMPRISING AN NRP1 BINDING DOMAIN” (Pinetree Therapeutics, Inc., priority 2022, published 2026)",
  "molecules": {"B1": {"name": "EGFR degrader: bispecific antibody (EGFR×NRP1 Ab) that specifically binds to EGFR and NRP1; polypeptide sequences SEQ ID NOs: 11 and 12 (antibody)", "heavy": "QVQLQESGPGLVKPSETLSLTCTVSGGSVSSGDYYWTWIRQSPGKGLEWIGHIYYSGNTNYNPSLKSRLTISIDTSKTQFSLKLSSVTAADTAIYYCVRDRVTGAFDIWGQGTMVTVSS[sequence of human IgG1 constant region not given]GGGGSGGGGSGGGGSEVQLLESGGGLVQPGGSLRLSCAASGFTFSSYAMSWVRQAPGKGLEWVSQISPAGGYTNYADSVKGRFTISRDNSKNTLYLQMNSLRAEDTAVYYCARGELPYFRMSKVMDVWGQGTLVTVSSGGGGSGGGGSGGGGSEIVLTQSPGTLSLSPGERATLSCRASQFLSSYLAWYQQKPGQAPRLLIYGASARASGIPDRFSGSGSGTDFTLTISRLEPEDFAVYYCQQYLASPATFGQGTKVEIK", "light": "DIQMTQSPSSLSASVGDRVTITCQASQDISNYLNWYQQKPGKAPKLLIYDASNLETGVPSRFSGSGSGTDFTFTISSLQPEDIATYFCQHFDHLPLAFGGGTKVEIKRTVAAPSVFIFPPSDEQLKSGTASVVCLLNNFYPREAKVQWKVDNALQSGNSQESVTEQDSKDSTYSLSSTLTLSKADYEKHKVYACEVTHQGLSSPVTKSFNRGEC"}},
  "key": {"[1]": {"test": "In vitro cell viability", "type": "cell-based"}, "[2]": {"system": "H1975", "test": "H1975 (Osimertinib-sensitive, parental) xenograft mouse model", "type": "in vivo", "conditions": "EGFR double mutations, unpublished data"}, "[3]": {"system": "H1975-HGF", "test": "H1975-HGF (HGF-overexpressing) xenograft model", "type": "in vivo, mouse", "method": "The H1975-HGF cell line was prepared by recombinantly engineering the H1975 cell line to express HGF by standard methods. Thus, the H1975-HGF xenograft model represents a dual activation model in which both the EGFR and cMET pathways are constitutively activated."}, "[4]": {"system": "H1975-OR", "test": "Osimertinib-resistant mouse xenograft model (H1975-OR)", "type": "in vivo", "conditions": "EGFR double mutations, unpublished data", "source_text": "Panitumumab is a fully humanized anti-EGFR monoclonal antibody, which binds to EGFR and block the EGFR signaling. Osimertinib is an EGFR tyrosine kinase inhibitor."}},
  "data": [
    {"molecule": "B1", "values": [
      {"measurement": "in vitro cell viability", "setting": "[1]", "result": "reduces in vitro cell viability"},
      {"measurement": "tumor growth", "setting": "[2]", "result": "significantly inhibits tumor growth"},
      {"measurement": "tumor volume over time (FIG. 6B)", "setting": "[3]; H1975-HGF, second set, Osimertinib 10 mg/kg i.p. QD, Crizotinib 20 mg/kg i.p. QD, EGFR degrader 15 mg/kg i.p. QW", "result": "did exhibit tumor growth inhibition"},
      {"measurement": "tumor growth", "setting": "[3]; Osimertinib-refractory (H1975-HGF) xenograft, EGFR double mutations, unpublished data", "result": "significantly inhibits tumor growth"},
      {"measurement": "tumor growth", "setting": "[4]", "result": "significantly inhibits tumor growth"}
    ]}
  ]
}
